Laboratory results from article PMC12820563, “FoxP3 forms a head-to-head dimer in vivo and stabilizes its multimerization on adjacent microsatellites”.
Some of the results follow.

These sequences were tested against T1, MBP-FoxP1dN (Mus musculus, UniProt P58462 326-579) (assay: PD-seq (MBP pull-down with sequencing); 20 mM Tris-HCl pH 7.5, 100 mM NaCl, 1.5 mM MgCl2, 0.4 uM protein, 0.1 uM dsDNA library, 30 min, room temperature, amylose pull-down; high values mean tight binding). Conditions: protein: recombinant; tags: His6-MBP; chain copies: 2; dsDNA, one strand shown.
T1 sequence: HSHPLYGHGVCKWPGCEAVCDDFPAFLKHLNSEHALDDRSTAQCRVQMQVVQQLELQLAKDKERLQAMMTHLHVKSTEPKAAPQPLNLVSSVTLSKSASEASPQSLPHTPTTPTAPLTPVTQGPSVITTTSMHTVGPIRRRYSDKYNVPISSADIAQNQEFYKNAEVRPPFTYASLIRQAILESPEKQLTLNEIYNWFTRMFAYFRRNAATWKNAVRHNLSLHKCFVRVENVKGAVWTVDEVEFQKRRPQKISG
Procedure, shortened: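 A degenerate double-stranded DNA library, filled in with Klenow, was added at 0.1 µM to 0.4 µM His6-MBP-tagged mouse FoxP3 or FoxP1 fragment lacking the N-terminus, expressed in E. coli. Incubation lasted 30 min at room temperature in Tris pH 7.5 buffer with NaCl and MgCl2, after which complexes were collected on amylose resin, washed three times, digested with proteinase K to free the DNA, barcoded by PCR and sequenced by Illumina. Binding is the pooled-replicate reads-per-million enrichment of pull-down over input.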

Sequence | binding signal
GATGATTGTTCTCCCAGCTGATGAATTGCATATATCGAGTAAACAAATTTTCCTAATCTTTCTGTTCAAGCGCCATCTAC | 1.33 RPM ratio (pull-down/input)
GATGATTGTTCTCCCAGCTGATGAATTTAATCCATCGAGTAAACAAATTTTCCTAATCTTTCTGTTCAAGCGCCATCTAC | 0.882 RPM ratio (pull-down/input)
GATGATTGTTCTCCCAGCTGATGAATTGAAATGTTCGAGTAAACAAATTTTCCTAATCTTTCTGTTCAAGCGCCATCTAC | 0.864 RPM ratio (pull-down/input)
GATGATTGTTCTCCCAGCTGATGAATTGGGCATATCGAGTAAACAAATTTTCCTAATCTTTCTGTTCAAGCGCCATCTAC | 0.94 RPM ratio (pull-down/input)
GATGATTGTTCTCCCAGCTGATGAATTCCCCCGATCGAGTAAACAAATTTTCCTAATCTTTCTGTTCAAGCGCCATCTAC | 0.785 RPM ratio (pull-down/input)
GATGATTGTTCTCCCAGCTGATGAATTTACGTAATCGAGTAAACAAATTTTCCTAATCTTTCTGTTCAAGCGCCATCTAC | 1.82 RPM ratio (pull-down/input)
GATGATTGTTCTCCCAGCTGATGAATTGGTCAATTCGAGTAAACAAATTTTCCTAATCTTTCTGTTCAAGCGCCATCTAC | 1.08 RPM ratio (pull-down/input)
GATGATTGTTCTCCCAGCTGATGAATTGTAGGCATCGAGTAAACAAATTTTCCTAATCTTTCTGTTCAAGCGCCATCTAC | 1.17 RPM ratio (pull-down/input)
GATGATTGTTCTCCCAGCTGATGAATTTGACAGCTCGAGTAAACAAATTTTCCTAATCTTTCTGTTCAAGCGCCATCTAC | 0.79 RPM ratio (pull-down/input)
GATGATTGTTCTCCCAGCTGATGAATTTATCATCTCGAGTAAACAAATTTTCCTAATCTTTCTGTTCAAGCGCCATCTAC | 1.11 RPM ratio (pull-down/input)
GATGATTGTTCTCCCAGCTGATGAATTGGTTGGCTCGAGTAAACAAATTTTCCTAATCTTTCTGTTCAAGCGCCATCTAC | 0.803 RPM ratio (pull-down/input)
GATGATTGTTCTCCCAGCTGATGAATTGGGCGGTTCGAGTAAACAAATTTTCCTAATCTTTCTGTTCAAGCGCCATCTAC | 0.837 RPM ratio (pull-down/input)
GATGATTGTTCTCCCAGCTGATGAATTTAAATGATCGAGTAAACAAATTTTCCTAATCTTTCTGTTCAAGCGCCATCTAC | 0.947 RPM ratio (pull-down/input)
GATGATTGTTCTCCCAGCTGATGAATTAGGTGTGTCGAGTAAACAAATTTTCCTAATCTTTCTGTTCAAGCGCCATCTAC | 1.01 RPM ratio (pull-down/input)
GATGATTGTTCTCCCAGCTGATGAATTACATTCTTCGAGTAAACAAATTTTCCTAATCTTTCTGTTCAAGCGCCATCTAC | 1.17 RPM ratio (pull-down/input)
GATGATTGTTCTCCCAGCTGATGAATTGTGGAGTTCGAGTAAACAAATTTTCCTAATCTTTCTGTTCAAGCGCCATCTAC | 1.02 RPM ratio (pull-down/input)
GATGATTGTTCTCCCAGCTGATGAATTTACGCGCTCGAGTAAACAAATTTTCCTAATCTTTCTGTTCAAGCGCCATCTAC | 1.11 RPM ratio (pull-down/input)
GATGATTGTTCTCCCAGCTGATGAATTAGCCCAATCGAGTAAACAAATTTTCCTAATCTTTCTGTTCAAGCGCCATCTAC | 1.07 RPM ratio (pull-down/input)
GATGATTGTTCTCCCAGCTGATGAATTACAGGCCTCGAGTAAACAAATTTTCCTAATCTTTCTGTTCAAGCGCCATCTAC | 0.987 RPM ratio (pull-down/input)
GATGATTGTTCTCCCAGCTGATGAATTCACCACTTCGAGTAAACAAATTTTCCTAATCTTTCTGTTCAAGCGCCATCTAC | 0.895 RPM ratio (pull-down/input)

Sequence | binding signal
GATGATTGTTCTCCCAGCTGATGAATTGCCGGAGTCGAGTAAACAAATTTTCCTAATCTTTCTGTTCAAGCGCCATCTAC | 0.816 RPM ratio (pull-down/input)
GATGATTGTTCTCCCAGCTGATGAATTTGTTAAATCGAGTAAACAAATTTTCCTAATCTTTCTGTTCAAGCGCCATCTAC | 1.36 RPM ratio (pull-down/input)
GATGATTGTTCTCCCAGCTGATGAATTCCGCTGGTCGAGTAAACAAATTTTCCTAATCTTTCTGTTCAAGCGCCATCTAC | 0.748 RPM ratio (pull-down/input)
GATGATTGTTCTCCCAGCTGATGAATTGTAGCCCTCGAGTAAACAAATTTTCCTAATCTTTCTGTTCAAGCGCCATCTAC | 0.89 RPM ratio (pull-down/input)
GATGATTGTTCTCCCAGCTGATGAATTCGGATCATCGAGTAAACAAATTTTCCTAATCTTTCTGTTCAAGCGCCATCTAC | 0.914 RPM ratio (pull-down/input)
GATGATTGTTCTCCCAGCTGATGAATTCAAACTCTCGAGTAAACAAATTTTCCTAATCTTTCTGTTCAAGCGCCATCTAC | 0.865 RPM ratio (pull-down/input)
GATGATTGTTCTCCCAGCTGATGAATTCGCTCCATCGAGTAAACAAATTTTCCTAATCTTTCTGTTCAAGCGCCATCTAC | 0.913 RPM ratio (pull-down/input)
GATGATTGTTCTCCCAGCTGATGAATTGTCACGTTCGAGTAAACAAATTTTCCTAATCTTTCTGTTCAAGCGCCATCTAC | 1.09 RPM ratio (pull-down/input)
GATGATTGTTCTCCCAGCTGATGAATTATTTCACTCGAGTAAACAAATTTTCCTAATCTTTCTGTTCAAGCGCCATCTAC | 1.03 RPM ratio (pull-down/input)
GATGATTGTTCTCCCAGCTGATGAATTCAACACTTCGAGTAAACAAATTTTCCTAATCTTTCTGTTCAAGCGCCATCTAC | 0.959 RPM ratio (pull-down/input)
GATGATTGTTCTCCCAGCTGATGAATTATCCATTTCGAGTAAACAAATTTTCCTAATCTTTCTGTTCAAGCGCCATCTAC | 0.915 RPM ratio (pull-down/input)
GATGATTGTTCTCCCAGCTGATGAATTCGTCAAATCGAGTAAACAAATTTTCCTAATCTTTCTGTTCAAGCGCCATCTAC | 0.916 RPM ratio (pull-down/input)
GATGATTGTTCTCCCAGCTGATGAATTCTCTCTGTCGAGTAAACAAATTTTCCTAATCTTTCTGTTCAAGCGCCATCTAC | 0.832 RPM ratio (pull-down/input)
GATGATTGTTCTCCCAGCTGATGAATTAGAATACTCGAGTAAACAAATTTTCCTAATCTTTCTGTTCAAGCGCCATCTAC | 0.916 RPM ratio (pull-down/input)
GATGATTGTTCTCCCAGCTGATGAATTATTCGCCTCGAGTAAACAAATTTTCCTAATCTTTCTGTTCAAGCGCCATCTAC | 1.05 RPM ratio (pull-down/input)
GATGATTGTTCTCCCAGCTGATGAATTAAGCCTGTCGAGTAAACAAATTTTCCTAATCTTTCTGTTCAAGCGCCATCTAC | 0.828 RPM ratio (pull-down/input)
GATGATTGTTCTCCCAGCTGATGAATTCTTTCCGTCGAGTAAACAAATTTTCCTAATCTTTCTGTTCAAGCGCCATCTAC | 0.812 RPM ratio (pull-down/input)
GATGATTGTTCTCCCAGCTGATGAATTCCGATACTCGAGTAAACAAATTTTCCTAATCTTTCTGTTCAAGCGCCATCTAC | 0.914 RPM ratio (pull-down/input)
GATGATTGTTCTCCCAGCTGATGAATTTAATATGTCGAGTAAACAAATTTTCCTAATCTTTCTGTTCAAGCGCCATCTAC | 0.979 RPM ratio (pull-down/input)
GATGATTGTTCTCCCAGCTGATGAATTCAGTGTCTCGAGTAAACAAATTTTCCTAATCTTTCTGTTCAAGCGCCATCTAC | 0.912 RPM ratio (pull-down/input)
